In PubChem BioAssay AID1347430 (National Center for Advancing Translational Sciences (NCATS), 2020):
Screen size: about 91,000 compounds; about 130 (0.14%) were called active. Inconclusive means that the source gave no clear call. Such entries were picked first, then a sample of the others. Calls come from the whole dose curve; as a rule, active = well fitted inhibition curve with a large enough effect; inconclusive = small, poorly fitted or top-dose-only effect; inactive = flat fitted curve, though single readings scatter. Potencies beside an inconclusive call are fits to weak or partial responses and may not hold up.

Test system: Uracil-DNA glycosylase
Assay: Primary qHTS assay for inhibitors of Activation Induced Cytidine Deaminase (AID): UDG Counterscreen signal; note: nearly all actives have a fitted effect of over 65% in size
Details: FRET deamination/UDG coupled assay, UDG read, 4 h; activity change, negative = inhibition: at 115 µM (top of the series)
From the text: Assay Provider (PI) Patricia Gearhart Ph.D.
National Institute on Aging
National Institute of Health (NIH), Bethesda, MD
Assay Provider (PI) Rahul Kohli Ph.D.
Perelman School of Medicine
University of Pennsylvania, Philadelphia, PA
Activation-Induced Deaminase (AID) is a cytosine deaminase which converts cytosine into uracil within stretches of ssDNA. The presence of uracil in DNA initiates a cascade of mutagenic DNA repair to introduce point mutations and DNA double strand breaks. Specific targeting of AID to the immunoglobulin heavy chain loci (Igh) promotes mutagenesis in the antibody variable region for somatic hypermutation (SHM) or switch regions leading to class switch recombination (CSR). However, AID also plays a role in accumulating unnecessary mutations across the genome. Mis-targeting of AID results in the initiation of tumor development and leads to greater drug resistance among cancer cells when continually expressed. To identify an AID inhibitor, a small molecule library will be screened in collaboration with NCATS core facility at NIH. To confirm biological function, inhibitors will be examined in an in vitro murine B-cell activation assay and subsequent secondary validation screens. Top molecules will be further screened to identify inhibitory efficacy against a wild type primary splenocytes assay. Using these approaches, we hope to identify a small molecule with great efficacy and low toxicity for use as a molecular probe to further characterize AID's intricacies, or even as a therapeutic.
A FRET based analysis of cytosine deamination, was developed to identify potential inhibitors of AID catalytic activity. This screen has two signal output, Read 1 evaluates the AID inhibition response. The second readout (Read 2) evaluates UDG response and is uses as a counterscreen to exclude false positive inhibitors. Inhibition in AID and inactivity in the UDG signal is the desired outcome for this assay.
SEQUENCE No. (e.g., 1, 2, 3, etc.); […] (e.g., Cells, Incubation, Reagent, etc.); VALUE; DESCRIPTION
1a; Reagent; 3 uL; [4/3x] 1 uM AID/2.67 U/mL UDG
1b; Reagent; 3 uL; 2 U/mL UDG
1c; Reagent; 3 uL; 1 uM AID
2a; Compound; 46 nL; Follow-up plates (0.64 uM - 10 mM)
2b; Control; 46 nL; ATA ([…] - 10 mM)
3; Time; 10 min; incubation at room temperature
5; Time; 4 hr; incubation at room temperature
6; Reagent; 4 uL; [2x] 250 mM NaOH
7; Time; 15 sec; centrifuge at 1000 rpm
8; Time; 30 min; incubation at room temperature
9a; Detection; fluorescence (Read 1: AID); EnVision (PerkinElmer) plate reader, 540 excitation and 590 emission filters
9b; Detection; fluorescence (Read 2: UDG); EnVision (PerkinElmer) plate reader, 560 excitation and 665 emission filters
NOTES (numbers refer to sequence above)
1a; Reagents were dispensed in a medium-binding black solid-bottom Greiner plates (789176F) using a BioRptr liquid dispenser. Dispense 3 uL of [4/3x] 1 uM AID (provided by Kohli lab) and [4/3x] 2 U/mL UDG (NEB M0280L) into columns 1, 2, 5 to 48.
1b; Dispense 3 uL of [4/3x] 2 U/mL UDG into column 3.
1c; Dispense 3 uL of [4/3x] 1 uM AID into column 4.
2a; Compound (7-points [uM] (0.64; 3.2; 16; 80; 400; 2,000; 10,000; 20,000) double pin-transferred (Dip Factor = 2) using the Kalypsys (Wako USA) pintool equipped with a 1536 pinhead for a final concentration range of 7.32 nM - 114 uM.
2b; 10 mM Aurintricarboxylic Acid (Sigma A1895) (ATA, 8-point, n = 2, 1:2.5 dilution in column 2) double pin-transferred (Dip Factor = 2) using the Kalypsys (Wako USA) pintool equipped with a 1536 pinhead for a [final] range of 186 nM - 114 uM.
3; Room temperature incubation.
4; Dispense 1 uL of substrate mixture from the Kohli lab [4x] […] DJC20 and [4x] 250 nM DJC23 into columns 1 to 48 .
5; Room temperature incubation.
6; Dispense 4 uL of substrate mixture [2x] 250 mM NaOH into columns 1 to 48.
7; Centrifugation step to remove bubbles.
8; Room temperature incubation
9a; Fluorescence signal (column label AID) was read using the EnVision plate reader. […]
% is set by controls: 0 for no effect and ±100 for the full control effect; potency is the fitted concentration of half-maximal effect; tags give direction and shape of the fitted curve.

SMILES	Potency	activity change, negative = inhibition
CCOc1ccc(CNCCNC(=O)c2nonc2N)cc1	inconclusive: 100 µM [inhibitor, single point]	
COc1ccc(CNC(=O)Cc2c(C)c3ccc(O)cc3oc2=O)cc1	inconclusive: 100 µM [inhibitor, partial curve, poor fit]	
CN(CC(=O)NC1CCCCNC1=O)Cc1cccc(F)c1 (stereo not drawn)		inactive: -5.14%
CC(C)c1ccc(NC(=O)CCS(=O)(=O)c2ccc(Br)s2)cc1	inconclusive: 89.1 µM [inhibitor, single point]	
C(#Cc1ccccc1)C[N+]1(CC#Cc2ccc(C#CC[N+]3(CC#Cc4ccccc4)CCOCC3)cc2)CCOCC1	inconclusive: 25.1 µM [inhibitor, full curve]	
COc1ccc(C2Nc3ccccc3-c3cc(C)nn32)cc1O (stereo not drawn)	inconclusive: 100 µM [inhibitor, single point]	
COc1cccc(CNC(=O)Cn2nc(C(=O)O)c3ccccc3c2=O)c1		inactive: -8.63%
COc1cc(OC)c(NC(=O)CCc2nc(C3=CCN(Cc4cccc(Cl)c4)CC3)no2)cc1Cl	inconclusive: 79.4 µM [inhibitor, partial curve, poor fit]	
COc1ccc(C(NC(=O)CNc2ccccc2C(N)=O)C2CC2)cc1 (stereo not drawn)		inactive: 8.16%
COc1cc(NC(=O)c2cc(-c3cccc(OC)c3)n[nH]2)cc(OC)c1	inconclusive: 89.1 µM [inhibitor, single point]	
CCc1noc(C)c1C(=O)Nc1ccc(C)c(C)c1		inactive: -5.76%
COc1ccc(N(C(=O)c2ccc(C(C)(C)C)cc2)S(=O)(=O)c2ccc(Cl)cc2)cc1	inconclusive: 89.1 µM [inhibitor, single point]	
CCc1ccccc1Nc1sc(C(=O)c2cccc(OC)c2)c(N)c1S(=O)(=O)c1ccccc1	inconclusive: 79.4 µM [inhibitor, partial curve, poor fit]	
COC(=O)c1c(NC(=O)/C(C#N)=C/c2ccccc2)sc2c1C(C(=O)OC)CC2 (stereo not drawn)	inconclusive: 100 µM [inhibitor, partial curve, poor fit]	
CCC1CCCCN1S(=O)(=O)c1cc2c3c(c1)CC(=O)N3CCC2 (stereo not drawn)	active: 89.1 µM	
COc1ccc(-c2csc(N3N=C(C)CC3c3cc(OC)c(OC)c(OC)c3)n2)cc1 (stereo not drawn)	active: 89.1 µM	
Cc1ccc(C(=O)C(C)OC(=O)c2c(C)noc2C)cc1 (stereo not drawn)		inactive: 2.35%
Cc1ccc(CNC(=O)CCC(=O)N2CC3CCCN3c3ccccc32)cc1 (stereo not drawn)	inconclusive: 89.1 µM [inhibitor, single point]	
O=c1c2c(nc3nc(NCc4c(Cl)cccc4Cl)[nH]n13)CCC2		inactive: 7.76%
NNc1nc(NCc2ccccc2)nc(Nc2ccccc2)n1	inconclusive: 44.7 µM [inhibitor, full curve, poor fit]	
CCOc1ccc(NC(=O)C(CC)n2c(=O)c(-c3ccccc3NC(C)=O)nc3ccccc32)cc1 (stereo not drawn)	inconclusive: 89.1 µM [inhibitor, partial curve, poor fit]	
COc1ccccc1OCCSc1nc(-c2ccc(C(C)(C)C)cc2)nc2cc(=O)[nH]n12		inactive: -27.3%
COc1ccc(S(=O)(=O)N2CCn3cccc3C2c2ccc(C)cc2)cc1C (stereo not drawn)	active: 79.4 µM	

SMILES	Potency	activity change, negative = inhibition
COc1ccc(-n2nc(C)c3c2NC(=O)CC3c2cccc(OC)c2OC(C)C)nn1 (stereo not drawn)		inactive: -0.3%
CC(C)CNC(=O)NCCn1c(-c2ccc(F)cc2)nc2ccccc21	inconclusive: 89.1 µM [inhibitor, single point]	
CN(CC(=O)Nc1ccccc1Br)C(=O)CCc1ncc(-c2ccc(F)cc2F)o1		inactive: -0.157%
Cc1ccc(CNC(=O)c2ccc3c(c2)NC(=O)C(CS(=O)(=O)Cc2cccc(F)c2)N3)cc1 (stereo not drawn)	inconclusive: 100 µM [inhibitor, partial curve, poor fit]	
Cc1ccc(C(=O)Nc2ccc(S(=O)(=O)N(Cc3ccccc3)c3ccccc3)cc2)cc1	inconclusive: 3.55 µM [inhibitor, full curve, poor fit]	
O=C(COc1ccc(F)cc1)Nc1ccc2nc(SCCOc3ccccc3)sc2c1	inconclusive: 89.1 µM [inhibitor, single point]	
COc1ccc(NC(=O)CCCN2C(=O)CCn3nc(-c4cn(C)c5ccccc45)cc32)cc1	inconclusive: 89.1 µM [inhibitor, single point]	
CCOC(=O)c1cnc2ccc(OC)cc2c1Nc1cccc(C(C)=O)c1	inconclusive: 100 µM [inhibitor, partial curve, poor fit]	
Cn1nccc1C(=O)NCc1ccc2c(c1)CCN2C(=O)c1ccc(F)cc1	inconclusive: 79.4 µM [inhibitor, single point]	
N#Cc1cc2c(nc1SCCOc1ccccc1)CCCCC2		inactive: -13.8%
CC1CCCN(S(=O)(=O)c2ccc(NC(=O)c3nc(SC(C)C)ncc3Cl)cc2)C1 (stereo not drawn)	inconclusive: 100 µM [inhibitor, single point]	
COc1ccc(OCCCn2c(=O)oc3ccc(C)cc32)cc1	inconclusive: 3.16 µM [inhibitor, full curve, poor fit]	
COc1ccc2c(C)cc(SCC(=O)N3CCCC3)nc2c1		inactive: 0.875%
Cc1ccc(-c2ccc(C=C(C#N)C#N)n2C)cc1		inactive: 0.823%
Cc1oc(-c2cccc(Cl)c2)nc1CN1CCCC(C(=O)NCc2ccc(F)cc2)C1 (stereo not drawn)	inconclusive: 89.1 µM [inhibitor, partial curve, poor fit]	
CN1c2ccccc2-c2nc(SCC(=O)Nc3ccccc3C(F)(F)F)ncc2S1(=O)=O	inconclusive: 89.1 µM [inhibitor, partial curve, poor fit]	
Cc1ccc(CSc2nc3ccc(NC(=O)C(C)C)cc3s2)cc1	inconclusive: 63.1 µM [inhibitor, partial curve, poor fit]	
CCN(Cc1ccccc1)C(=O)Cn1c(=O)n(Cc2ccccc2)c(=O)c2c1c1cc(OC)ccc1n2C	inconclusive: 89.1 µM [inhibitor, partial curve, poor fit]	
CCN(CC)C(CNS(=O)(=O)c1ccc(C#N)cc1)c1ccsc1 (stereo not drawn)		inactive: -4.57%
Cc1cc(NC(=O)CCCn2c(C)c3cnn(-c4ccccc4)c(=O)c3c2C)ccc1Br	inconclusive: 89.1 µM [inhibitor, partial curve, poor fit]	
C#CC(C)(CC)NC(=O)Cn1nnc(-c2ccc(OCc3ccccc3F)cc2)n1 (stereo not drawn)		inactive: -13.8% [at 57.5 µM]
Nc1nccnc1C(=O)NCc1ccc(OC(F)F)cc1		inactive: -0.838%
Cc1cc(C)c(S(=O)(=O)N2CCC(n3c(CC(C)C)nc4cccnc43)CC2)c(C)c1	inconclusive: 89.1 µM [inhibitor, single point]	

SMILES	Potency	activity change, negative = inhibition
COc1ccccc1Nc1nn2c(=O)c3ccc(C(=O)NCc4cccs4)cc3nc2s1		inactive: -6.79%
CC(C)CCNC(=O)CC(c1ccc(F)cc1)N1Cc2ccccc2C1=O (stereo not drawn)		inactive: -6.76%
CC(=O)c1cc2c(cc1NC(=O)CSc1nnc(C3CC3)n1C1CC1)OCO2		inactive: 9.64%
Cc1ccc(C(=O)c2sc(Nc3ccc(F)cc3)c(C#N)c2N)cc1		inactive: 5.04%
Cc1ccc(OC(=O)CSc2nnc(-c3ccc4c(c3)OCO4)o2)c(C)c1	inconclusive: 79.4 µM [inhibitor, partial curve]	
Cc1cccn2c(=O)cc(COc3ccc(NC(=O)COc4ccc(F)cc4)cc3)nc12	inconclusive: 70.8 µM [inhibitor, single point]	
O=C(O)CCc1ccc(-c2ccc(Br)cc2)n1-c1ccccc1O	inconclusive: 100 µM [inhibitor, single point]	
CN1C(=O)Cc2cc(S(=O)(=O)CCC(=O)Nc3ccc(Cl)cc3)ccc21	inconclusive: 79.4 µM [inhibitor, partial curve, poor fit]	
COc1ccc(-n2c(SC)nc3sc4c(c3c2=O)CCN(C(C)=O)C4)cc1	inconclusive: 89.1 µM [inhibitor, single point]	
FC(F)(F)c1cccc(N2CCN(c3nc4ccccc4n4cnnc34)CC2)c1	inconclusive: 89.1 µM [inhibitor, single point]	
COc1ccc(S(=O)(=O)c2cc3cc(C(C)(C)C)cc(O)c3oc2=O)cc1	inconclusive: 89.1 µM [inhibitor, single point]	
Cc1ccc(C)c(N(C)C(=O)C2CCN(c3ncnc4c3nc3n4CCCCC3)CC2)c1		inactive: -10.1%
O=C(NCc1cccc(Cl)c1)c1cc2cc(Cl)ccc2[nH]1		inactive: 2.51%
Cc1c(C(=O)NCc2ccccc2Cl)cccc1-n1cnc2cccnc21	inconclusive: 89.1 µM [inhibitor, single point]	
NC(=O)c1[nH]ncc1NCc1cccnc1		inactive: -9.5%
CCOc1ccc(C(=O)Oc2c(Sc3ccccc3)c(C)nn2C(C)(C)C)cc1OCC	inconclusive: 79.4 µM [inhibitor, single point]	
Cc1cc(C)cc(OCCSc2nc3ccc(NC(=O)COc4ccccc4)cc3s2)c1	inconclusive: 89.1 µM [inhibitor, single point]	
Cc1ccc(OCC(=O)Nc2nonc2-c2ccc(Br)cc2)cc1C	inconclusive: 89.1 µM [inhibitor, single point]	
CN(C)CCN(Cc1ccc(F)cc1)C(=O)Nc1cccc2ccccc12		inactive: 6.94%
CCOC(=O)c1c(NC(=O)C2c3ccccc3Oc3ccccc32)sc2c1CCC(CC)C2 (stereo not drawn)	inconclusive: 100 µM [inhibitor, single point]	
Cc1nn2c(C)c(C(=O)N3CCN(c4ccc(Cl)cc4)CC3)cnc2c1-c1ccc(F)cc1	inconclusive: 89.1 µM [inhibitor, single point]	
O=C(NCCCN1CCN(c2cccc(Cl)c2)CC1)c1ccc2nc(Cc3ccccc3)oc2c1	inconclusive: 56.2 µM [inhibitor, partial curve, poor fit]	
